{"source": "the supplement of paper PMC10126150", "note": "Values marked as one replicate rest on one cluster of the flow cell; about a third of the high ones do not repeat.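 Further: ATP exposure 15 min at 22 °C before imaging.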"}
{"test_system": "ATP", "experiment": "switch fluorescence ratio, 500 uM ATP over buffer (Cy3 cluster intensity, sum of 5 cycles each) (fold (ratio)); higher = stronger signal-on switching upon ATP binding; sequences stand for … in TCGTCGGCAGCGTCAGATGTGTATAAGAGACAGTTTTTTTTTTTTTTTTTTTTTTTTT…TC", "settings": "aptamer strand: ATP DNA aptamer (quencher-CACCTGGGGGAGTATTGCGGAGGAAGG + anchor), 100 nM annealed; ATP concentration: 500 uM; one replicate", "procedure,_shortened": "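Per cluster, summed Cy3 intensity from the target cycles was divided by that from the buffer cycles to give the fluorescence ratio, then averaged per switch-domain sequence. Clusters outside 100-1000 RFU were excluded. The Cy3-labelled switching-strand clusters, on a modified Illumina MiSeq flow-cell, were annealed to 100 nM quencher-labelled ATP aptamer and imaged in selection buffer, then after 15 min with 500 uM ATP at 22 °C, for five cycles with NaOH stripping and re-annealing between them.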"}
{"sequence": "CTGGATTCAC", "switch fluorescence ratio": 1.03}
{"sequence": "AAAAATTCAA", "switch fluorescence ratio": 1.01}
{"sequence": "GAACTCCGTG", "switch fluorescence ratio": 1.21}
{"sequence": "CCTTACAGAT", "switch fluorescence ratio": 1.06}
{"sequence": "CCGTAAGTTG", "switch fluorescence ratio": 1.09}
{"sequence": "GTGAGTGACC", "switch fluorescence ratio": 0.95}
{"sequence": "TACCTCGACG", "switch fluorescence ratio": 1.28}
{"sequence": "GTTGCAAGTG", "switch fluorescence ratio": 0.99}
{"sequence": "TTCGGTTCCT", "switch fluorescence ratio": 0.997}
{"sequence": "CGCATTTCGG", "switch fluorescence ratio": 1.08}
{"sequence": "CGGGTCAGCG", "switch fluorescence ratio": 1.01}
{"sequence": "GCGCAGTTGC", "switch fluorescence ratio": 1.74}
{"sequence": "AAGATCGTAA", "switch fluorescence ratio": 1.01}
{"sequence": "TGCCGGGTCA", "switch fluorescence ratio": 0.969}
{"sequence": "ACATGCTGCT", "switch fluorescence ratio": 0.962}
{"sequence": "GCCTTGGCCG", "switch fluorescence ratio": 0.957}
{"sequence": "TGCAGGGTG", "switch fluorescence ratio": 1.14}
{"sequence": "GAGAATAGGG", "switch fluorescence ratio": 1.03}
{"sequence": "TTCACGAGG", "switch fluorescence ratio": 1.04}
{"sequence": "GGTGTAGCTC", "switch fluorescence ratio": 1}
{"sequence": "CCAATTATTC", "switch fluorescence ratio": 1}
{"sequence": "AAGAAACCGC", "switch fluorescence ratio": 1.74}
{"sequence": "TATCGTGCC", "switch fluorescence ratio": 0.979}
{"sequence": "AAAAGCGGCC", "switch fluorescence ratio": 0.993}
{"sequence": "TCCGCCTCGG", "switch fluorescence ratio": 1.02}
{"sequence": "AGTAACGTAT", "switch fluorescence ratio": 1.03}
{"sequence": "AAACGGCGAG", "switch fluorescence ratio": 1.03}
{"sequence": "AGTAGATTAT", "switch fluorescence ratio": 1.02}
{"sequence": "TTCTCTGCCT", "switch fluorescence ratio": 1.26}
{"sequence": "TCTCGCCGAT", "switch fluorescence ratio": 1.07}
{"sequence": "TAGGCAAGCA", "switch fluorescence ratio": 1.02}
{"sequence": "TCCGTTCATC", "switch fluorescence ratio": 1.17}
{"sequence": "GTTGTTGATT", "switch fluorescence ratio": 0.993}
{"sequence": "GCTATATTAT", "switch fluorescence ratio": 0.98}
{"sequence": "TTAGATGTAC", "switch fluorescence ratio": 0.971}
{"sequence": "CATCATTTTT", "switch fluorescence ratio": 1.03}
{"sequence": "ATAGACCGGA", "switch fluorescence ratio": 1.08}
{"sequence": "ATGAAGGCTC", "switch fluorescence ratio": 1.03}
{"sequence": "AAACCATCTG", "switch fluorescence ratio": 0.934}
{"sequence": "CTGCTGGGGA", "switch fluorescence ratio": 1.01}
{"sequence": "CAGGTACTGC", "switch fluorescence ratio": 1.03}
{"sequence": "GAGGGCTGCC", "switch fluorescence ratio": 0.994}
{"sequence": "GAGTATGAGG", "switch fluorescence ratio": 0.981}
{"sequence": "AGTTCACTAG", "switch fluorescence ratio": 0.954}
{"sequence": "TGGTGTATCG", "switch fluorescence ratio": 0.96}
{"sequence": "AGGTACACG", "switch fluorescence ratio": 0.958}
{"sequence": "GGAGACGAAC", "switch fluorescence ratio": 1.19}
{"sequence": "GGCCCCCCCG", "switch fluorescence ratio": 1.59}
{"sequence": "GTTAACACGG", "switch fluorescence ratio": 1}
{"sequence": "AGAAATGGTT", "switch fluorescence ratio": 1.34}
{"sequence": "GGAGTACCGT", "switch fluorescence ratio": 0.995}
{"sequence": "TTTAATTCAA", "switch fluorescence ratio": 0.971}
{"sequence": "ACATGAAGGC", "switch fluorescence ratio": 0.927}
{"sequence": "GCTTAGGGCC", "switch fluorescence ratio": 1.01}
{"sequence": "TGTATGTTAT", "switch fluorescence ratio": 1.02}
{"sequence": "AGAATAAGAT", "switch fluorescence ratio": 0.984}
{"sequence": "GGGGTGAGCG", "switch fluorescence ratio": 1.03}
{"sequence": "GTGGAGCGCT", "switch fluorescence ratio": 1.01}
{"sequence": "TATACTCCGT", "switch fluorescence ratio": 2.29}
{"sequence": "AGCATAAAAT", "switch fluorescence ratio": 1.08}
{"sequence": "ATGTGAACCG", "switch fluorescence ratio": 1.07}
{"sequence": "GAGCAACCCT", "switch fluorescence ratio": 1.24}
{"sequence": "TGCGTTCTCG", "switch fluorescence ratio": 1.09}
{"sequence": "TGGGTGACCG", "switch fluorescence ratio": 0.996}
{"sequence": "AAACGTTCGC", "switch fluorescence ratio": 1.25}
{"sequence": "AGTGTCCCCT", "switch fluorescence ratio": 1.02}
{"sequence": "TCCTTTTCGG", "switch fluorescence ratio": 0.994}
{"sequence": "ATTCCGTTGT", "switch fluorescence ratio": 1.06}
{"sequence": "AGTATTCAT", "switch fluorescence ratio": 1.03}
{"sequence": "TGTGCGAGTC", "switch fluorescence ratio": 0.995}
{"sequence": "GATTTAACCA", "switch fluorescence ratio": 0.963}
{"sequence": "AATTAGTGGT", "switch fluorescence ratio": 0.998}
{"sequence": "ATAGTCCATG", "switch fluorescence ratio": 0.941}
{"sequence": "TTAAGGTTC", "switch fluorescence ratio": 0.972}
{"sequence": "CCCTTTGAGT", "switch fluorescence ratio": 1.02}
{"sequence": "TGATAAGTC", "switch fluorescence ratio": 1.03}
{"sequence": "TTTTATGCAT", "switch fluorescence ratio": 1.01}
{"sequence": "GCGGCGCGTA", "switch fluorescence ratio": 0.846}
{"sequence": "GATTAAAGAT", "switch fluorescence ratio": 0.974}
{"sequence": "GAAACGTGCG", "switch fluorescence ratio": 0.956}
{"sequence": "CCCCCTCCTC", "switch fluorescence ratio": 1.24}
{"sequence": "CGCTAGTCCG", "switch fluorescence ratio": 0.973}
{"sequence": "TAGCTATAGA", "switch fluorescence ratio": 1.04}
{"sequence": "GACGCGGGAG", "switch fluorescence ratio": 1.34}
{"sequence": "CCCCGGGGCG", "switch fluorescence ratio": 1.07}
{"sequence": "ACGAGGGCAA", "switch fluorescence ratio": 4.01}
{"sequence": "GCTGGGTT", "switch fluorescence ratio": 0.968}
{"sequence": "CGGTTTTGCA", "switch fluorescence ratio": 1.01}
{"sequence": "GAGGGTGTAC", "switch fluorescence ratio": 1.02}
{"sequence": "GAGGAAAGGA", "switch fluorescence ratio": 0.958}
{"sequence": "CGATAACTTT", "switch fluorescence ratio": 1.03}
{"sequence": "ATTGCCCCGA", "switch fluorescence ratio": 1.01}
{"sequence": "CGCTTGGCGA", "switch fluorescence ratio": 0.998}
{"sequence": "CCGGTGGTGG", "switch fluorescence ratio": 0.95}
{"sequence": "ATGGGAAGAG", "switch fluorescence ratio": 1.03}
{"sequence": "AGGACAGTAC", "switch fluorescence ratio": 1.61}
{"sequence": "AATGTTCGCG", "switch fluorescence ratio": 1.01}
{"sequence": "AACTGCAGCG", "switch fluorescence ratio": 1.05}
{"sequence": "CCAGCCCTGA", "switch fluorescence ratio": 0.97}
{"sequence": "GTGTCGGGTT", "switch fluorescence ratio": 0.991}
{"sequence": "AAGATAAATT", "switch fluorescence ratio": 0.974}
{"sequence": "CTAGTTGAGT", "switch fluorescence ratio": 0.978}
{"sequence": "CTAATCAATT", "switch fluorescence ratio": 1.02}
{"sequence": "CACAGGCATC", "switch fluorescence ratio": 0.989}
{"sequence": "AACTCCGTTG", "switch fluorescence ratio": 1.06}
{"sequence": "CCGTTAAGCA", "switch fluorescence ratio": 2.22}
{"sequence": "TGCACGAGCA", "switch fluorescence ratio": 1.04}
{"sequence": "CCGGATTGCT", "switch fluorescence ratio": 1.19}
{"sequence": "AACTTGCGGG", "switch fluorescence ratio": 0.963}
{"sequence": "TCCATTCTCG", "switch fluorescence ratio": 1.04}
{"sequence": "TGGAGCCCGT", "switch fluorescence ratio": 1.01}
{"sequence": "TATAACTACT", "switch fluorescence ratio": 1.02}
{"sequence": "TGTTCCGCGC", "switch fluorescence ratio": 4.43}
{"sequence": "TTTGGGAACA", "switch fluorescence ratio": 0.985}
{"sequence": "TTCCGCCCAA", "switch fluorescence ratio": 3.3}
{"sequence": "CTAAGAAGGC", "switch fluorescence ratio": 1.74}
{"sequence": "GGGTTCGTCG", "switch fluorescence ratio": 0.978}
{"sequence": "CGTCGTGGAA", "switch fluorescence ratio": 0.954}
{"sequence": "AGTCCAATCC", "switch fluorescence ratio": 1.09}
{"sequence": "TCATTTTATA", "switch fluorescence ratio": 1.03}
{"sequence": "CGGTCTTTCC", "switch fluorescence ratio": 1.06}
{"sequence": "GTGATGTAT", "switch fluorescence ratio": 1.02}
{"sequence": "TGTTGCGCGA", "switch fluorescence ratio": 1.07}
{"sequence": "GTGACATTTC", "switch fluorescence ratio": 1.01}
{"sequence": "TCGTCGCATG", "switch fluorescence ratio": 1.13}
{"sequence": "AAGACTATCG", "switch fluorescence ratio": 1.02}
{"sequence": "GCTGAGGTGC", "switch fluorescence ratio": 1.03}
{"sequence": "TCAACGTGC", "switch fluorescence ratio": 1.01}
{"sequence": "GATTGAACAT", "switch fluorescence ratio": 0.99}
{"sequence": "AAATTAATAC", "switch fluorescence ratio": 1.14}
{"sequence": "TTACTCCTAT", "switch fluorescence ratio": 1.08}
{"sequence": "GGTAGCGGTC", "switch fluorescence ratio": 1.06}
{"sequence": "TTTCCTTCCT", "switch fluorescence ratio": 1.79}
{"sequence": "GTCAAATCTT", "switch fluorescence ratio": 1.03}
{"sequence": "ACTCCGTTCA", "switch fluorescence ratio": 2.05}
{"sequence": "ATACGGAAA", "switch fluorescence ratio": 1}
{"sequence": "ACACTGATGT", "switch fluorescence ratio": 1.05}
{"sequence": "TCACTTATTG", "switch fluorescence ratio": 0.967}
{"sequence": "CATGAGCTTC", "switch fluorescence ratio": 1.06}
{"sequence": "ACCCCAATCC", "switch fluorescence ratio": 1.53}
{"sequence": "TCGAAGTAAC", "switch fluorescence ratio": 1.56}
{"sequence": "CGGCCATGCG", "switch fluorescence ratio": 0.998}
{"sequence": "ATCACTCAGT", "switch fluorescence ratio": 1.03}
{"sequence": "GCGCAGGGAA", "switch fluorescence ratio": 0.973}
{"sequence": "GACATCTGGT", "switch fluorescence ratio": 0.951}
{"sequence": "ATTGCTCGCT", "switch fluorescence ratio": 0.958}
{"sequence": "CGGGATCACA", "switch fluorescence ratio": 1.02}
{"sequence": "CATTATTTCG", "switch fluorescence ratio": 0.981}
{"sequence": "CCCTCTTTAG", "switch fluorescence ratio": 1.01}
{"sequence": "TGGTGATTTT", "switch fluorescence ratio": 0.983}
{"sequence": "GATTAGGGAC", "switch fluorescence ratio": 1}
{"sequence": "CTCTGGAAAG", "switch fluorescence ratio": 1.02}
{"sequence": "CTGTGGGATA", "switch fluorescence ratio": 3.12}
{"sequence": "CCGATTCCCT", "switch fluorescence ratio": 1.01}
{"sequence": "TTTAGTAGAC", "switch fluorescence ratio": 0.997}
{"sequence": "GACCGGAAAA", "switch fluorescence ratio": 1.05}
{"sequence": "TAAATGGCCC", "switch fluorescence ratio": 1.01}
